Among all 340,000 compounds or so, about 20 (0.006%) were called active. This list was built around the results that the source calls inconclusive (neither active nor inactive); the mix of calls is not that of the screen. Calls come from the whole dose curve; as a rule, active = well fitted inhibition curve with a large enough effect; inconclusive = small, poorly fitted or top-dose-only effect; inactive = no such curve, though single readings can be large or run the other way. A potency beside an inconclusive call is a rough fit, not a confirmed value.
target: Sphingomyelin phosphodiesterase (Homo sapiens) (UniProt P17405); assay: Inhibitors of Secretory Acid Sphingomyelinase (S-ASM): qHTS; details: placental ASM, HMU-PC fluorogenic substrate (series up to 57.5 µM), 60 min; activity change, negative = inhibition: at the top concentration
UniProt P17405, sequence (P17405 whole entry, looked up): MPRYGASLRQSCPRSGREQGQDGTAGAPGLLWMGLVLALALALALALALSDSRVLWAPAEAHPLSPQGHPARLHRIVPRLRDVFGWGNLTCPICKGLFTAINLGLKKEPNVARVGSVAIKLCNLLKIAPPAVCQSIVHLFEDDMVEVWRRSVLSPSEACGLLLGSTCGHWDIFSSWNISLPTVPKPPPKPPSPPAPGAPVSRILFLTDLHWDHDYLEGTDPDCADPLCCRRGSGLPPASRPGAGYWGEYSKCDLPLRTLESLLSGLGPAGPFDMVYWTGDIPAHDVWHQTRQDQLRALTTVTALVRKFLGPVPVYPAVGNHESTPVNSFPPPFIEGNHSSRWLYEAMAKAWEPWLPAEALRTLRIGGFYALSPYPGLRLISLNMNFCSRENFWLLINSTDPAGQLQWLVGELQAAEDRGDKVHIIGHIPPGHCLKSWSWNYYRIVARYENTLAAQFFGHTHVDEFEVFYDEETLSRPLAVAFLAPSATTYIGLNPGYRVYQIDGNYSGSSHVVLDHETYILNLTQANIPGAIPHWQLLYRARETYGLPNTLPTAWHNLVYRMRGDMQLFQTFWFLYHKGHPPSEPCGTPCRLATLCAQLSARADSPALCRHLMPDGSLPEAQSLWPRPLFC
Method in brief: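 HMU-PC0 cleavage (9 uM final) by human placental ASM, 60 min at 37 °C following 10 min compound exposure at RT; stopped at pH 10, fluorescence Ex 386/Em 447 nm.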
Potency is the fitted concentration of half-maximal effect; tags give direction and shape of the fitted curve.

SMILES	activity change, negative = inhibition	Potency
COc1ccc2[nH]c(=O)c(CNC3CCCCC3)cc2c1	inactive: 86.6%	–
O=C(CCCCn1c(=O)c2ccccc2n(Cc2ccc(F)cc2)c1=O)NCc1ccco1	–	inconclusive: 282 µM [inhibitor, partial curve, poor fit]
Oc1[nH]c2ccccc2c1N=NC(=S)NCCc1ccccc1	–	inconclusive: 79.4 µM [inhibitor, single point]
COc1ccc(C(=O)Oc2c(CN3CCOCC3)cc(Cl)c3cccnc23)cc1	inactive: 2.03%	–
O=c1cc(N2CCCCC2)c(-c2ccccc2)nn1Cc1cccc(Cl)c1	–	inconclusive: 631 µM [inhibitor, partial curve, poor fit]
O=C(Nc1ccc(F)cc1)N1CCC(c2nc3c(nnn3Cc3cccc(Cl)c3)c(=O)[nH]2)CC1	–	inconclusive: 50.1 µM [inhibitor, partial curve, poor fit]
Cc1ccc(NC(=O)c2cc(S(=O)(=O)NCCc3ccccc3)ccc2F)cc1Cl	–	inconclusive: 100 µM [inhibitor, partial curve, poor fit]
N#C/C(=C\c1ccc(N2CCOCC2)c([N+](=O)[O-])c1)c1nc2ccccc2[nH]1	–	inconclusive: 56.2 µM [inhibitor, partial curve, poor fit]
CCOc1cccc(NC(=O)C2CC(=O)N(C)C(=Nc3cccc(F)c3)S2)c1 (configuration not stated)	–	inconclusive: 70.8 µM [inhibitor, partial curve, poor fit]
CC1Cc2ccccc2N1C(=O)Cn1cnc2c1c(=O)n(C)c(=O)n2C (configuration not stated)	inactive: 5.28%	–
CCOc1ccc(CNC(=S)N/N=C/c2ccc(OC)c(OC)c2)cc1	–	inconclusive: 79.4 µM [inhibitor, partial curve, poor fit]
O=C1c2cccc3cccc(c23)C(=O)N1CCN1CCN(CC(O)COc2ccc3ccccc3c2)CC1 (configuration not stated)	–	inconclusive: 112 µM [inhibitor, partial curve, poor fit]
CC(C)c1ccc2[nH]c(O)c(N=NC(=S)NCCc3ccccc3)c2c1	–	inconclusive: 141 µM [inhibitor, partial curve, poor fit]
CNC(=O)[C@H]1O[C@@H](n2cnc3c(NCc4cccc(I)c4)nc(Cl)nc32)[C@H](O)[C@@H]1O	–	inconclusive: 70.8 µM [inhibitor, single point]
CCc1ccc(NC(=O)c2cc3c(C)nc4ccccc4c3o2)cc1	–	inconclusive: 89.1 µM [inhibitor, partial curve, poor fit]
O=C(N/N=C/c1c(O)ccc2ccccc12)c1cccc(C(F)(F)F)c1	–	inconclusive: 79.4 µM [inhibitor, partial curve, poor fit]
Cc1sc2ncnc(NCC(O)c3ccccc3)c2c1C (configuration not stated)	inactive: -2.43%	–
CCc1cc2cc(C)cc(C)c2nc1SCC(=O)NNC(=O)c1ccco1	inactive: -7.95%	–
O=C(NCc1ccc(OC(F)(F)F)cc1)C1CC2Cn3c(nc4ccccc43)C2N1c1ccccc1 (configuration not stated)	–	inconclusive: 79.4 µM [inhibitor, single point]
COCCNC(=S)N/N=C/c1c2ccccc2cc2ccccc12	inactive: 21.5%	–
O=C(NC(NNc1ccc([N+](=O)[O-])cc1)(C(F)(F)F)C(F)(F)F)c1ccc(Cl)cc1	–	inconclusive: 100 µM [inhibitor, partial curve, poor fit]
O=C(COC(=O)Cc1c(F)cccc1Cl)NNC(=O)c1ccccc1	inactive: 1.25%	–
CCc1ccc(/C=c2\s/c(=C\C(=O)C(C)(C)C)[nH]c2=O)cc1	–	inconclusive: 100 µM [inhibitor, partial curve, poor fit]

SMILES	activity change, negative = inhibition	Potency
COc1ccc(C2=NN(C(=O)CSc3ncccn3)C(c3ccc(OC)cc3)C2)cc1 (configuration not stated)	–	inconclusive: 251 µM [inhibitor, partial curve, poor fit]
CCC(C)Sc1ccc([C@H]2N[C@@](CC(C)C)(C(=O)OC)[C@H]3C(=O)N(CC)C(=O)[C@@H]23)cc1 (some centres not stated)	inactive: 0.236%	–
CC(Oc1ccc(Cl)cc1Cl)c1nc(-c2ccc(NC(=O)c3ccco3)cc2)no1 (configuration not stated)	–	inconclusive: 251 µM [inhibitor, partial curve, poor fit]
CCOc1cc(/C=N/Nc2nc(Nc3ccccc3)nc(N3CCCCC3)n2)ccc1OCC(=O)O	–	inconclusive: 79.4 µM [inhibitor, single point]
O=C(N/N=C/c1cn(Cc2cccc(F)c2)c2ccccc12)c1cc(O)cc(O)c1	–	inconclusive: 79.4 µM [inhibitor, partial curve, poor fit]
O=C(Nc1ccc2oc(=O)ccc2c1)c1cc2ccccc2o1	inactive: 2.68%	–
Nc1c(Cl)cc(-c2csc(N3CCCC3c3nc4cc(Cl)c(Cl)cc4n3CCCO)n2)cc1Cl (configuration not stated)	–	inconclusive: 178 µM [inhibitor, partial curve, poor fit]
COc1ccccc1COCC(O)CNCCc1ccc(C(F)(F)F)cc1 (configuration not stated)	inactive: -1.31%	–
CN(c1ccc(O)cc1)c1nc(O)c(C2=c3ccccc3=NC2=O)s1	–	inconclusive: 79.4 µM [inhibitor, partial curve, poor fit]
O=C1/C(=C/c2ccc(O)c(O)c2)SC(=S)N1Nc1ccccc1	–	inconclusive: 100 µM [inhibitor, partial curve, poor fit]
O=C(NCc1ccccc1Cl)c1cccc(C(F)(F)F)c1	inactive: 0.621%	–
COc1ccc(/C=C2\SC(=S)N(CCCC(=O)N3CCN(C)CC3)C2=O)cc1	–	inconclusive: 100 µM [inhibitor, single point]
Cc1cccc(C)c1OCCNC(=O)C(=O)NCc1ccco1	inactive: -1.05%	–
CCOC(=O)CCc1c(C)nc2c(c(C)nn2C(C)(C)C)c1C	–	inconclusive: 89.1 µM [inhibitor, single point]
COc1ccc(OCCCC(=O)N(C)CC(=O)Nc2c(C)cccc2C)cc1	inactive: 3.57%	–
O=C(Cn1cc(SCc2cccc(Cl)c2)c2ccccc21)N1CCOCC1	inactive: -2.96%	–
CC1CCCCN1C(=O)CN1C(=O)CSc2ccc(S(=O)(=O)N3CCOCC3)cc21 (configuration not stated)	inactive: -0.226%	–
COc1cc(/C=C2\SC(=S)N(NC(=O)c3cccnc3)C2=O)ccc1O	–	inconclusive: 100 µM [inhibitor, single point]
C=CCN(C(=O)c1cccc(S(=O)(=O)N2CCN(C)CC2)c1)c1nc(-c2ccccc2)cs1	–	inconclusive: 89.1 µM [inhibitor, single point]
CC1Cc2ccccc2N1S(=O)(=O)c1cccc(C(=O)N2Cc3ccccc3CC2C(N)=O)c1 (configuration not stated)	inactive: -3.05%	–
CC(=O)c1c(N2CCN(Cc3ccccc3)CC2)nc(=S)n(-c2ccccc2)c1C	inactive: -1.87%	–
COc1cccc(CN2CCN(Cc3cccc(Br)c3)CC2)c1OC	inactive: 0.513%	–
CCc1ccccc1NS(=O)(=O)c1cc2c(cc1C)n(C)c(=O)c(=O)n2C	inactive: -0.678%	–

SMILES	activity change, negative = inhibition	Potency
CCSc1nsc(NC(=O)Nc2cccc(F)c2)n1	–	inconclusive: 100 µM [inhibitor, partial curve, poor fit]
COc1ccc(C(=O)CSc2nc3ccccc3n2CC(=O)c2ccccc2)cc1	–	inconclusive: 70.8 µM [inhibitor, partial curve, poor fit]
O=C1NN=C(c2ccc(Br)cc2)CC1c1ccc(Cl)cc1 (configuration not stated)	inactive: -11.8%	–
COc1ccc(C(=O)CCN2CCN(c3ccccc3OC)CC2)cc1	inactive: 3.98%	–
COc1ccc(-c2c(-c3ccc(OC)c(C)c3O)n[nH]c2C)cc1	–	inconclusive: 1000 µM [inhibitor, partial curve, poor fit]
CCn1c(SCC(=O)N(C)c2ccccc2)nc2c([nH]c3ccccc32)c1=O	–	inconclusive: 447 µM [inhibitor, partial curve, poor fit]
Cc1cccnc1NC(=S)Nc1ncccc1C	inactive: -1.94%	–
CCc1ccc(/C=C2\SC(=S)N(CCC(=O)NCCCN3CCOCC3)C2=O)cc1	–	inconclusive: 794 µM [inhibitor, partial curve, poor fit]
COc1ccc(N2CCN(CCC3Oc4cc([N+](=O)[O-])ccc4NC3=O)CC2)cc1 (configuration not stated)	–	inconclusive: 282 µM [inhibitor, partial curve, poor fit]
CC(C(=O)Nc1ccc(S(=O)(=O)N2CCCC2)cc1)N1CCCC(C(N)=O)C1 (configuration not stated)	inactive: -0.782%	–
COC(=O)C1=C(C)NC(=O)/C1=C\c1cc(C)n(-c2cc(C)cc(C)c2)c1C	–	inconclusive: 100 µM [inhibitor, single point]
CN(C)CCNc1ccc(CO)c2sc3ccc(O)cc3c(=O)c12	inactive: -9.98%	–
Cc1ccc(C(=O)n2ncn(C)c2=S)cc1	inactive: 3.05%	–
COc1cccc(Nc2nc(-c3ccccc3O)nc3ccccc23)c1	–	inconclusive: 100 µM [inhibitor, partial curve, poor fit]
Cc1ccc2[nH]c(C)c(/C=C/c3cc[n+](C)cc3)c2c1	–	inconclusive: 79.4 µM [inhibitor, single point]
Cc1ccc(NC(=O)CC(=O)c2ccc([N+](=O)[O-])cc2)cc1S(=O)(=O)Nc1cccc(Cl)c1	–	inconclusive: 158 µM [inhibitor, partial curve, poor fit]
CC(C)(C)c1ccc(Oc2ccc(NC(=O)C3CC=CCC3C(=O)O)cc2)cc1 (configuration not stated)	–	inconclusive: 89.1 µM [inhibitor, partial curve]
COc1ccc(OC)c(S(=O)(=O)N2CCN(C(=O)NC3CCCCC3)CC2)c1	inactive: 5.63%	–
CCN1CCN(Cc2ccc(NC(=O)c3cc(NC(=O)c4cc(-c5ccc(OC)cc5)n[nH]4)cc(OC)c3)cc2C(F)(F)F)CC1	–	inconclusive: 89.1 µM [inhibitor, single point]
CCN(CC)P(=O)(Nc1ccc(C)cc1Br)c1ccc(N(C)C)cc1NC(=O)c1ccco1 (configuration not stated)	–	inconclusive: 79.4 µM [inhibitor, partial curve, poor fit]
CSc1nc(-c2ccco2)nn1C(=O)c1ccccc1Cl	–	inconclusive: 631 µM [inhibitor, partial curve, poor fit]

From PubChem BioAssay AID504937 (National Center for Advancing Translational Sciences (NCATS), 2011)
